Laboratory results from PubChem BioAssay AID360 (National Center for Advancing Translational Sciences (NCATS), 2006).
In all, about 48,000 compounds went through this assay and about 550 (1.1%) were called active. Not shown: some 4% with an inconclusive outcome. No stated cut-off is given here; in the data, active means potency below about 15 µM; inconclusive means mostly about 16 µM to 33 µM; inactive means weaker than that. This is one part of the list.

target: Lysosomal acid glucosylceramidase (Homo sapiens) (UniProt P04062); assay: Glucocerebrosidase; details: purified enzyme, resorufin glucoside fluorescence (screen aimed at inhibitors), 20 min;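 further: the screen sought inhibitors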
Sequence of UniProt P04062 (P04062 whole entry, looked up): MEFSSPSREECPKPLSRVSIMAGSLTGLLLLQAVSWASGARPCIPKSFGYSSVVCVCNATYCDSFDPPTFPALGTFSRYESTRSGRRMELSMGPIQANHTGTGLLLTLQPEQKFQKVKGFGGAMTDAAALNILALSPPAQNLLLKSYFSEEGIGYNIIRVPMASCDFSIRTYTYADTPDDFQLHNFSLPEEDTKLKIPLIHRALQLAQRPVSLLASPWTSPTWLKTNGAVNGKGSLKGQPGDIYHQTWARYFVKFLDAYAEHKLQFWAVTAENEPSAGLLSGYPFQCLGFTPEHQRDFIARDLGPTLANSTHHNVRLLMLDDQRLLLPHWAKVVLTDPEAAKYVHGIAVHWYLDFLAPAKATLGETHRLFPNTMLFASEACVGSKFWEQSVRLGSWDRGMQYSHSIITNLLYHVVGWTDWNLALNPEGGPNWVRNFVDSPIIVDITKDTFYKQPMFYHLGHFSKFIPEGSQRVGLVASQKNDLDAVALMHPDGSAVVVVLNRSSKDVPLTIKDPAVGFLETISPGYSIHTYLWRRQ
Method in brief: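 Wild-type enzyme at 0.2 nM final in 50mM citric acid/KH2PO4, 10mM sodium taurocholate, 0.01% tween-20, pH 5.9, with resorufin beta-D-glucopyranoside at 30 uM final. Compounds titrated, 20 min at RT, red fluorescence read; AC50 from titration.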
Potency means the concentration at half of the fitted maximal effect.

Potency, inactive:
CSc1nc(O)c(C2OC(=O)c3ccccc32)c(=O)[nH]1 (stereo not given) > 76.9 µM
Cc1cc(NC(=O)C2CC=CCC2C(=O)O)no1 (stereo not given) > 76.9 µM
CCN1C(=O)CC(Sc2ccccc2N)C1=O (stereo not given) > 76.9 µM
O=C(CSC1=Nc2ccccc2C2=NC(c3ccccc3)C(=O)N12)NCC1CCCO1 (stereo not given) > 76.9 µM
COc1ccc(CN2CCN(S(=O)(=O)c3ccc(NC(C)=O)cc3)CC2)cc1OC > 76.9 µM
N#C/C(C(=O)N1CCOCC1)=c1\s/c(=C/c2ccncc2)c(=O)n1-c1ccccc1 > 76.9 µM
Fc1ccc(-c2nnc3sc(-c4ccc5c(c4)OCO5)nn23)cc1 > 76.9 µM
COC(=O)[C@H](C)NC(=O)Nc1ccccc1F > 76.9 µM
CCOC(=O)C(C)NC(=O)C(NC(=O)C1CCC(CC)CC1)C(C)C (stereo not given) > 76.9 µM
O=C1C2CC=CCC2C(=O)N1CC(=O)N(Cc1ccccc1)C1CCS(=O)(=O)C1 (stereo not given) > 76.9 µM
Cc1ccc(NC(=O)C2CC(=O)NC(N3CCCCC3)=N2)cc1Cl (stereo not given) > 76.9 µM
O=c1c2[nH]c3ccc(Br)cc3c2ncn1CCCn1ccnc1 > 76.9 µM
O=S(=O)(Nc1ccccn1)c1ccc(C2CCCCC2)cc1 > 76.9 µM
CC(=O)Nc1ccc(S(=O)(=O)N2CCN(S(=O)(=O)N3CCCCCC3)CC2)cc1 > 76.9 µM
CCN(CC)c1ccc(CNc2ccc(Br)cn2)cc1 > 76.9 µM
CC1=C(SCCC#N)S/C(=C2\SC(C)=C(SCCC#N)S2)S1 > 76.9 µM
Cc1nn(CC(=O)NC(C)c2ccccc2)c(=O)c2ccccc12 (stereo not given) > 76.9 µM
CCc1nnc(NC(=O)CCN2C(=O)c3ccccc3S2(=O)=O)s1 > 76.9 µM
N#CC1=C(N)SC(N)=C(C#N)C1c1ccoc1 > 76.9 µM
c1ccc2sc(N3CN(CCN4CCOCC4)CN(c4nc5ccccc5s4)C3)nc2c1
CCCn1c(SCC(=O)Nc2nnc(CC)s2)nnc1-c1ccco1 > 76.9 µM
CCCc1nc(-c2ccccc2O)n(-c2ccccc2)n1 > 76.9 µM
CC(=O)N1c2ccccc2C(=O)C1N1CCCCC1 (stereo not given) > 76.9 µM
COc1cccc(-c2cc(C(=O)N3CCN(C(c4ccccc4)c4ccccc4)CC3)no2)c1 > 76.9 µM
O=C(NCCc1ccccc1)c1ccnc(/C=N/O)c1 > 76.9 µM
